Results reported in the supplement of paper PMC7266297.
Counter-ions that a name gives are not always drawn. The list shows a part of the results. Single values are uncertain, as repeats are few or missing.
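Note: Read-out is SRB optical density at 490 nm, with the control being wells given 0.5% DMSO vehicle, and compound added one day after cells were plated.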

Each compound was assayed on KB-V1 (assay: growth inhibition relative to DMSO control (SRB); cervical cancer cells: KB-3-1 is the parent and KB-V1 overexpresses MDR1; SRB is the sulforhodamine B stain; higher = more growth inhibition). Details: 1 µM; 72 h.
`Cc1cc(Cl)ccc1OCCCC(=O)NO` [Droxinostat] was tested, and the growth inhibition was 41.8%.
Work on `CNC(=O)c1cccc(-c2ccc3c(N4CCOC[C@@H]4C)nc(N4CCOC[C@@H]4C)nc3n2)c1` yielded a growth inhibition of 82.1%.
In the case of `CN(C)C(=O)C(CCN1CCC(O)(c2ccc(Cl)cc2)CC1)(c1ccccc1)c1ccccc1` [Loperamide HCl], the growth inhibition is reported as 9.26%.
With `Nc1ncnc2c1c(-c1cccc(OCc3ccccc3)c1)cn2C1CC(CN2CCCC2)C1` (stereo unspecified) the growth inhibition was 60.1%.
For `COc1cc(N2CCC(N)CC2)ccc1Nc1ncc(Cl)c(-c2c[nH]c3ccccc23)n1`, the growth inhibition was 41.4%.
Compound `CN1CCN(C2CCN(C(=O)Nc3cc(Oc4ccc(NC(=O)C5(C(=O)Nc6ccc(F)cc6)CC5)c(F)c4)ccn3)CC2)CC1` [Golvatinib (E7050)] has a growth inhibition of 20.7%.
`COCCCN1CCC(NC(=O)c2cc(Cl)c(N)c3c2OCC3)CC1` [Prucalopride] gave a growth inhibition of 11.9%.
Work on `C=C(C)[C@@H]1CC[C@]2(C(=O)O)CC[C@]3(C)[C@H](CC[C@@H]4[C@@]5(C)CC[C@H](O)C(C)(C)[C@@H]5CC[C@]43C)[C@@H]12` [Betulinic acid] yielded a growth inhibition of 13.9%.
In the case of `CC(C)NC[C@@H](C(=O)N1CCN(c2ncnc3c2[C@H](C)C[C@H]3O)CC1)c1ccc(Cl)cc1`, the growth inhibition is reported as 54.1%.
For `CC(C)CCN1c2nc(Nc3cc(F)c(O)c(F)c3)ncc2N(C)C(=O)C1C` (stereo unspecified), the growth inhibition was 13.9%.
`C[C@]12CC[C@@H]3c4ccc(O)cc4C[C@@H](CCCCCCCCC[S+]([O-])CCCC(F)(F)C(F)(F)F)[C@H]3[C@@H]1CC[C@@H]2O` (stereo partly specified) [Fulvestrant] showed a growth inhibition of 43.6%.
In the case of `O=C(O)c1ccc(Nc2ncc3c(n2)-c2ccc(Cl)cc2C(c2c(F)cccc2F)=NC3)cc1`, the growth inhibition is reported as 94.8%.
In the case of `CC(=O)Nc1nc(C)c(-c2ccc(Cl)c(S(=O)(=O)NCCO)c2)s1`, the growth inhibition is reported as 19.2%.
For `Cn1c(=O)c2[nH]cnc2n(C)c1=O` [Aminophylline], the growth inhibition was 12.8%.
`Nc1nc(=O)n([C@@H]2CS[C@H](CO)O2)cc1F` [Emtricitabine] was tested, and the growth inhibition was 14%.
`Cc1ccc(NC(=O)c2ccc(CN3CCN(C)CC3)cc2)cc1Nc1nc(-c2cccnc2)cs1` [Masitinib (AB1010)] was tested, and the growth inhibition was 35.4%.
